The whole screen tested about 230,000 compounds, of which about 3,600 (1.6%) were called active. Inconclusive means that the source gave no clear call. Such entries were picked first, then a sample of the others. Calls follow the shape of the dose curve; as a rule, active = well fitted inhibition curve with a large enough effect (not every such curve was filed as active); inconclusive = small, poorly fitted or top-dose-only effect, or another doubt; inactive = no such curve, though single readings can be large or run the other way. A potency beside an inconclusive call is a rough fit, not a confirmed value.
Target: Lysine-specific demethylase 4E (Homo sapiens) (UniProt B2RXH2)
UniProt B2RXH2, sequence (B2RXH2 whole entry, looked up, the tested form may be a part): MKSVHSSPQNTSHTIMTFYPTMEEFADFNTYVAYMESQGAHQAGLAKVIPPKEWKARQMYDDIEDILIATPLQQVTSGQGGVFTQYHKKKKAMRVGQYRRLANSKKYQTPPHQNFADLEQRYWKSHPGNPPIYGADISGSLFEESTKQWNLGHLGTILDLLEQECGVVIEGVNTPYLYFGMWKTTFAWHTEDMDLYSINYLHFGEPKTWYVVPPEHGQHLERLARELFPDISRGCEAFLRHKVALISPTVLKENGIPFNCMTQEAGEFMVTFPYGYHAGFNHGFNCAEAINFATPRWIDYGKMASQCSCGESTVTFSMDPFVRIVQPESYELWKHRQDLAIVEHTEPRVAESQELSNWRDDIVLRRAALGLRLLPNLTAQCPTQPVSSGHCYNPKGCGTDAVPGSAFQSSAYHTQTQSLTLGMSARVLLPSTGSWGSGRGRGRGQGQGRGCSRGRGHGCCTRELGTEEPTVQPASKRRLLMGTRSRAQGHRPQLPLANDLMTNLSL
Assay: qHTS Assay for Inhibitors of Human Jumonji Domain Containing 2E (JMJD2E)
Conditions: JMJD2E catalytic domain, FDH-coupled NADH fluorescence (FDH is formaldehyde dehydrogenase); series mostly up to 57.1 µM
Also: nearly all actives have a fitted effect of over 50% in size.
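For activity change, negative = inhibition in this document: 0% = wells with enzyme and -100% = buffer wells without enzyme.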
Potency is read from the fitted curve at half-maximal effect; tags tell the direction and shape of the fitted curve.

Row | Structure (SMILES) | Potency | activity change, negative = inhibition
1 | CCCS(=O)(=O)N1CCN(CC2CC=CCC2)CC1 (stereo unspecified) | inconclusive: 39.8 µM [inhibitor, single point] | –
2 | CCOc1ccc(C(=O)Nc2cc(S(=O)(=O)Nc3ccccc3Cl)ccc2N2CCOCC2)cc1 | inconclusive: 11.2 µM [inhibitor, partial curve] | –
3 | Cc1ccc2cc(CN(Cc3ccc(F)cc3)Cc3nnnn3C3CCCC3)c(=O)[nH]c2c1 | inconclusive: 39.8 µM [inhibitor, single point] | –
4 | COCCNC(=O)C(C)OC(=O)c1cc2occc2n1C (stereo unspecified) | inactive | –
5 | COc1ccc(CC(=O)OCC(=O)Nc2ccc(N3CCOCC3)cc2)cc1 | inactive | –
6 | COc1cccc(C(=O)OCC(=O)NCCc2ccccc2)c1OC | inconclusive: 7.94 µM [inhibitor, full curve] | –
7 | COc1cc2c(cc1NC(=O)CSc1ccc(C)cc1)oc1ccccc12 | inconclusive: 39.8 µM [inhibitor, single point] | –
8 | Cc1ccc2[nH]c(=O)c(CN(Cc3cccs3)Cc3nnnn3Cc3ccccc3)cc2c1 | inconclusive: 39.8 µM [inhibitor, single point] | –
9 | CCCCN(CCCC)C(=O)CCS(=O)(=O)c1ccc2c(c1)n(C)c(=O)c(=O)n2C | inconclusive: 39.8 µM [inhibitor, single point] | –
10 | Cc1nc(-c2ccc(O)c(O)c2)cs1 | active: 15.8 µM | –
11 | CCCCc1nc2c(c3c1C[C@H](C)OC3)CN(S(=O)(=O)CCCC)CC2 | – | inactive: 3.46% [at 11.4 µM]
12 | Cc1cc2nc(/C=C/c3nc4cc(C)c(C)cc4[nH]3)[nH]c2cc1C | inconclusive: 28.2 µM [inhibitor, partial curve] | –
13 | N#CCSc1nc2c(cc1C#N)CCCCCC2 | inconclusive: 28.2 µM [inhibitor, partial curve] | –
14 | Cc1ccc(NC(=O)COC(=O)c2ccc3c(c2)NC(=O)C2CCCN32)cc1C (stereo unspecified) | inconclusive: 31.6 µM [inhibitor, partial curve] | –
15 | Clc1ccc(SCCn2cncn2)cc1 | inconclusive: 25.1 µM [inhibitor, single point] | –
16 | C/C(=N\O)c1ccc2c3ccccc3n(C)c2c1 | inconclusive: 25.1 µM [inhibitor, partial curve] | –
17 | COc1ccc(-c2nc(C#N)c(NCCc3ccccc3)o2)cc1 | inconclusive: 0.794 µM [inhibitor, single point] | –
18 | N#C/C(=C/c1ccc(N2CCOCC2)o1)c1nc2ccccc2[nH]1 | inconclusive: 28.2 µM [inhibitor, single point] | –
19 | COC(=O)c1c(NC(=O)CN2C(=O)NC3(CCc4ccccc4C3)C2=O)sc2c1CCCCC2 (stereo unspecified) | inactive | –
20 | CCOc1nc(-c2ccc(Cl)cc2Cl)ccc1C#N | inconclusive: 39.8 µM [inhibitor, single point] | –
21 | Cc1cc(C)n2c(SCC(=O)Nc3ccc(F)cc3F)nnc2n1 | inconclusive: 39.8 µM [inhibitor, single point] | –
22 | COC(=O)Cc1c(C)nc2nc(-c3ccc(OC)cc3)[nH]n2c1=O | inconclusive: 35.5 µM [inhibitor, single point] | –
23 | Clc1ncnc2scc(C3COc4ccccc4O3)c12 (stereo unspecified) | inactive | –

Row | Structure (SMILES) | Potency | activity change, negative = inhibition
24 | CC(Sc1ccc2ccccc2n1)C(=O)O (stereo unspecified) | inconclusive: 31.6 µM [inhibitor, single point] | –
25 | CCCC(=O)N(CC(=O)Nc1sc(C)c(C)c1C(N)=O)Cc1ccccc1 | inconclusive: 35.5 µM [inhibitor, single point] | –
26 | CCCc1cc(N2CCN(c3ccccn3)CC2)n2nc(C)c(-c3ccccc3)c2n1 | inconclusive: 7.08 µM [inhibitor, single point] | –
27 | O=[N+]([O-])c1ccc(O)c(N=Cc2sc3ccccc3c2O)c1 | active: 7.08 µM | –
28 | CCC1(c2ccccc2)NC(=S)N(c2ccc(C)cc2)N1 (stereo unspecified) | inconclusive: 31.6 µM [inhibitor, single point] | –
29 | COc1cc(NC(c2ccccc2)c2ccccc2)cc(OC)c1OC | inactive | –
30 | Nc1nc(SCC(=O)c2ccc(Oc3ccccc3)cc2)n[nH]1 | inactive | –
31 | CN(C(=O)CSc1nnc(Nc2ccccc2)s1)c1c(N)n(Cc2ccccc2)c(=O)[nH]c1=O | inactive | –
32 | O=C(c1ccc(-c2ccccc2)cc1)N1CCN(Cc2ccccn2)CC1 | inconclusive: 35.5 µM [inhibitor, single point] | –
33 | COc1ccc(C2C(C(=O)Nc3ccccc3OC)=C(C)Nc3ncnn32)cc1 (stereo unspecified) | inactive | –
34 | Oc1cc2c(cc1O)CN(C(=S)NCCc1ccc(Cl)cc1)CCC2 | active: 28.2 µM | –
35 | COc1ccc(-c2nc(-c3ccccc3)c(NC(C)(C)C)o2)cc1 | inactive | –
36 | CCN(CC)c1ccc(-c2nn3c(-c4n[nH]c5c4CCC5)nnc3s2)cc1 | inconclusive: 28.2 µM [inhibitor, partial curve] | –
37 | Nc1c(C(=O)N2CCCCC2)sc(=S)n1-c1ccccc1 | inconclusive: 10 µM [inhibitor, partial curve] | –
38 | Cc1noc(C)c1/C=N/Nc1ccccn1 | inconclusive: 31.6 µM [inhibitor, single point] | –
39 | COc1ccc(C2/C(=C(\O)c3ccc4c(c3)OCCO4)C(=O)C(=O)N2Cc2ccco2)c(OC)c1 (stereo unspecified) | inconclusive: 39.8 µM [inhibitor, single point] | –
40 | Cc1cccc2cc(C#N)c(SCC(=O)NCC3CCCO3)nc12 (stereo unspecified) | inactive | –
41 | OCCN1CCN(c2nc(-c3ccccc3)c3cc(Cl)ccc3n2)CC1 | inconclusive: 28.2 µM [inhibitor, single point] | –
42 | CSc1nnc(C2CCCN2)n1C (stereo unspecified) | inactive | –
43 | COc1cccc(C2NC(c3cccc(OC)c3O)C(C)C(=O)C2C)c1O (stereo unspecified) | active: 20 µM | –
44 | COC(=O)c1cc(NS(=O)(=O)c2ccc(NC(C)=O)cc2)cc(C(=O)OC)c1 | inconclusive: 39.8 µM [inhibitor, single point] | –
45 | COc1ccc(N(Cc2cc3ccccc3[nH]c2=O)S(=O)(=O)c2ccccc2)cc1 | inconclusive: 39.8 µM [inhibitor, single point] | –
46 | COC(=O)C1C(O)C(C)C(O)C(C)(O)/C=C\C=C(/C)C(=O)Nc2c(C)c(OC(C)=O)c3c(c2O)C(=O)C(C)=C2OCOC(=C23)/C(C)=C/C(C)(O)C(O)C(C)C1O (stereo unspecified) | active: 3.16 µM | –

From PubChem BioAssay AID2147 (National Center for Advancing Translational Sciences (NCATS), 2009)
